Data from PubChem BioAssay AID504832 (National Center for Advancing Translational Sciences (NCATS), 2011).
Among all 310,000 compounds or so, about 18,000 (5.8%) were called active. Inconclusive results, whose numbers are uncertain, are shown with a selection of clear calls. Calls follow the shape of the dose curve; as a rule, active = well fitted inhibition curve with a large enough effect; inconclusive = small, poorly fitted or top-dose-only effect, or another doubt; inactive = no such curve, though single readings can be large or run the other way. Potencies of inconclusive entries are left out as doubtful fits.

assay: Primary qHTS for delayed death inhibitors of the malarial parasite plastid, 48 hour incubation; conditions: P. falciparum luciferase growth in erythrocytes; series mostly up to 28.7 µM; activity change, negative = inhibition: at the top concentration
Method in brief: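 Cell-based growth assay: transgenic P. falciparum expressing firefly luciferase, cultured in red cells within RPMI 1640 containing 0.5% w/v Albumax, 24 mM bicarbonate and gentamycin. A drop in luciferase activity indicates inhibition.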
% is scaled to controls: 0 for no effect and ±100 for the full control effect; potency is read from the fitted curve at half-maximal effect; tags tell the direction and shape of the fitted curve.

SMILES	activity change, negative = inhibition	Potency
O=C(COc1ccccc1)NC(=S)Nc1cccc2cc(O)ccc12	inactive: 11.9%	
COc1ccc(CN2CCN(CCc3ccccc3)C(CCO)C2)c(Cl)c1OC (stereo not drawn)		inconclusive [inhibitor, single point]
CCOC(=O)N1CCN(C(=O)Cc2ccccc2OC)CC1	inactive: 0.637%	
COC(=O)c1c(/N=C/N(C)C)sc2c1CCN(c1ncc(C(F)(F)F)cc1Cl)C2		inconclusive [inhibitor, full curve, poor fit]
C=CCc1c(C)nc(-c2ccccc2)nc1Nc1ccccc1O		active: 5.22 µM
Cc1cc(C)cc(NC(=O)NCC(O)COc2ccc([N+](=O)[O-])cc2)c1 (stereo not drawn)		inconclusive [inhibitor, full curve]
FC(F)(F)c1cccc(NC(=S)NC2CCCC2)c1		inconclusive [inhibitor, single point]
CN(Cc1cnccn1)Cc1cn(Cc2ccccc2)nc1-c1ccc2c(c1)OCO2		inconclusive [inhibitor, full curve, poor fit]
COc1ccc(S(=O)(=O)N2CCN(CC(=O)NCC3(N4CCOCC4)CCCCC3)CC2)cc1		active: 9.28 µM
Cc1ccc(NC(=O)NC2CC(=O)N(c3ccc4c(c3)OCCO4)C2)cc1 (stereo not drawn)		inconclusive [inhibitor, single point]
O=C(c1cc(-c2ccco2)nc2ccccc12)N1CCCC(C(F)(F)F)C1 (stereo not drawn)		inconclusive [inhibitor, single point]
CCC(C)(C)n1nnnc1C(c1ccc(OC)c(OC)c1)N1CCN(c2ccccc2)CC1 (stereo not drawn)		inconclusive [inhibitor, partial curve, poor fit]
O=C(/C=C/c1ccc2c(c1)OCO2)NC1CCCC1	inactive: -8.44%	
O=C(NCc1ccc(Cl)cc1)C1CCN(C(=O)Cc2ccccc2)CC1	inactive: 15.3%	
CC(C)(C)N(Cc1ccccc1)C(=O)COC(=O)c1ccccc1SCC(=O)N1CCCC1		inconclusive [inhibitor, single point]
COCCNC(=O)CN(C(=O)c1ccc(N2CCCC2)nc1)c1ccc(F)c(Cl)c1		inconclusive [inhibitor, partial curve]
CCCCC(=O)O[C@H]1CC[C@H]2[C@@H]3CCc4cc(O)ccc4[C@H]3CC[C@]12C		inconclusive [inhibitor, partial curve, poor fit]
COc1ccc(C2CC(=O)C(C=NCCCN3CCOCC3)=C(O)C2)cc1 (stereo not drawn)	inactive: 10.8%	
Cc1onc(-c2c(F)cccc2Cl)c1C(=O)N=C(N)N1CC(C)OC(C)C1 (stereo not drawn)		inconclusive [inhibitor, partial curve]
Cc1csc(NC(=O)c2ccc(C)o2)n1	inactive: 170%	
COc1ccc(-n2cc(CNC3CCOCC3)c(-c3cccc(F)c3)n2)cc1		active: 11.7 µM
CCOC(=O)Cn1c(C)[n+](CC(=O)c2ccccc2)c2ccccc21		inconclusive [inhibitor, single point]

SMILES	activity change, negative = inhibition	Potency
Cc1ccc2c(c1)N(CC(=O)NC1CCC(C)CC1)C(=O)c1cccnc1O2 (stereo not drawn)		inconclusive [inhibitor, partial curve, poor fit]
COc1ccccc1N(C)S(=O)(=O)c1ccc(C(=O)OCC(=O)NCc2ccco2)cc1		inconclusive [inhibitor, single point]
COc1ccc(-c2ncncc2-c2ccc(Cl)cc2)c(O)c1		active: 8.28 µM
COc1cc(SC)ccc1C(=O)N(Cc1ccccc1)c1ccccc1		inconclusive [inhibitor, single point]
COc1ccc(C(=O)/C=C/Nc2ccc(S(=O)(=O)Nc3cc(OC)nc(OC)n3)cc2)c(OC)c1		active: 1.65 µM
CCOc1ccc(-n2c(SCC(=O)O)nc3sc4c(c3c2=O)CCCC4)cc1	inactive: -9.96%	
CCOC(=O)C1=C(C)NC(SC)=NC1c1ccccc1 (stereo not drawn)		inconclusive [inhibitor, single point]
CNc1ncc(-c2nnnn2-c2ccccc2)c(-c2ccccc2)n1		inconclusive [inhibitor, partial curve, poor fit]
COC(=O)c1sc(N/N=C/c2ccc(C(C)C)cc2)nc1C		active: 9.28 µM
CCCCCN(C(=O)CCC(=O)OCc1ccccc1C)c1c(N)n(CCCC)c(=O)[nH]c1=O		inconclusive [inhibitor, single point]
COc1ccc(-c2csc(NC(=O)c3cccc(N4C(=O)CCC4=O)c3)n2)cc1OC		inconclusive [inhibitor, single point]
COc1ccc(NC2CCCN(C(=O)c3cccc(C(F)(F)F)c3)C2)cc1OC (stereo not drawn)		inconclusive [inhibitor, single point]
CC(C)(C)CC(=O)N1CCC(c2nc3c(nnn3Cc3c(F)cccc3Cl)c(=O)[nH]2)CC1		inconclusive [inhibitor, partial curve, poor fit]
O=C(CC1=NC2(CCCC2)Cc2ccccc21)N1CCOCC1		inconclusive [inhibitor, partial curve, poor fit]
Cc1nc(-c2nnc(SCC(=O)Nc3ccc(C(F)(F)F)cc3)n2C)cs1		inconclusive [inhibitor, single point]
COc1ccccc1NC(=O)CSc1nnc(C2CCCCC2)n1-c1ccccc1		inconclusive [inhibitor, single point]
COc1ccc(CN2CCNC(=O)C2CC(=O)N2CCCCO2)c(OC)c1 (stereo not drawn)	inactive: 29.8%	
CCOC(=O)CSC1=C(C#N)C(c2ccc(F)cc2)C(C(C)=O)=C(C)N1 (stereo not drawn)	inactive: 31.1%	
CC(C)Cn1c(N)c(C(=O)CSc2nnc(C3CC3)n2C2CC2)c(=O)n(C)c1=O		inconclusive [inhibitor, partial curve, poor fit]
CC(C)CCn1c(CN2CCOCC2)nc2c1c(=O)n(C)c(=O)n2C		inconclusive [inhibitor, partial curve]
COc1ccccc1NS(=O)(=O)c1cccc(C(=O)OCc2nc3ccccc3s2)c1	inactive: 43.4%	
